# According to IntAct's records for PubMed 17258210:
# B1: Toll/interleukin-1 receptor domain-containing adapter protein (Homo sapiens), P58753 (parent)
# chain: MASSTSLPAPGSRPKKPLGKMADWFRQTLLKKPKKRPNSPESTSSDASQPTSQDSPLPPSLSSVTSPSLPPTHASDSGSSRWSKDYDVCVCHSEEDLVAAQDLVSYLEGSTASLRCFLQLRDATPGGAIVSELCQALSSSHCRVLLITPGFLQDPWCKYQMLQALTEAPGAEGCTIPLLSGLSRAAYPPELRFMYYVDGRGPDGGFRQVKEAVMRYLQTLS
# B2: Myeloid differentiation primary response protein MyD88 (Homo sapiens), Q99836 (parent)
# chain: MAAGGPGAGSAAPVSSTSSLPLAALNMRVRRRLSLFLNVRTQVAADWTALAEEMDFEYLEIRQLETQADPTGRLLDAWQGRPGASVGRLLELLTKLGRDDVLLELGPSIEEDCQKYILKQQQEEAEKPLQVAAVDSSVPRTAELAGITTLDDPLGHMPERFDAFICYCPSDIQFVQEMIRQLEQTNYRLKLCVSDRDVLPGTCVWSIASELIEKRCRRMVVVVSDDYLQSKECDFQTKFALSLSPGAHQKRLIPIKYKAMKKEFPSILRFITVCDYTNPCTKSWFWTRLAKALSLP
# Variants of: B1
# Conditions: with myd88_human MYD88, Q99836
row,effect of a mutation on the interaction,Variant
1,decreasing interaction strength,P125H

# Variants of: B2
# Conditions: with tirap_human TIRAP, P58753
row,effect of a mutation on the interaction,Variant
1,decreasing interaction strength,P200H
